# Measured values reported in PubChem BioAssay AID1240 (Sanford-Burnham Center for Chemical Genomics, 2008).
# In all, about 50,000 compounds went through this assay and about 800 (1.6%) showed an effect of 50% or more. Some of the results follow.
# Target: Bcl-2-like protein 10 (Homo sapiens) (UniProt Q9HD36)
# Assay: Phenotype converters, Bcl-B/TR3 peptide binding displacement, primary biochemical FP (AID 1240);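 note: 0% = Bcl-B with tracer peptide and DMSO and 100% = tracer peptide lacking Bcl-B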
# Settings: GST-Bcl-B / FITC-TR3 peptide fluorescence polarization; stronger effect = higher value; compound at 3.75 mg/L
# Chain of UniProt Q9HD36 (Q9HD36 whole entry, looked up): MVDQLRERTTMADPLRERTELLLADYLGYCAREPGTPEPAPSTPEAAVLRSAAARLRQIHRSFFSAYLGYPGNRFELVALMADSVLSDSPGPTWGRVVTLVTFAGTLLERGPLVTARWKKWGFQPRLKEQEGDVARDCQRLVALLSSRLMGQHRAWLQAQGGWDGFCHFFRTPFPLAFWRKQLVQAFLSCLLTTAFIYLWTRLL
row,Structure (SMILES),displacement [%]
1,CC(=O)C(=Cc1ccccc1O)C(C)=O,-4.2
2,C=CCN1C(=O)/C(=C/c2ccco2)SC1=S,46.5
3,COc1ccc(NC2SC(=O)NC2=O)cc1 (stereo not given),6.3
4,CC(=O)NNC(=O)COc1ccc(C)cc1,10.6
5,CCOc1ccc(-c2csc(-c3cc4cc([N+](=O)[O-])ccc4oc3=O)n2)cc1,-2.2
6,O=[N+]([O-])c1ccc(N/N=C/c2cccc(Oc3ccccc3)c2)cc1,6.2
7,Cc1ccccc1N1OC2C(=O)N(c3ccc(Br)cc3)C(=O)C2C1c1ccco1 (stereo not given),-52.7
8,COc1ccccc1-c1coc2cc(OC(=O)c3ccco3)ccc2c1=O,47.9
9,CC1CC(N(C(=O)c2ccc(Cl)cc2)c2ccccc2)c2ccccc2N1 (stereo not given),6.8
10,CC(C)(Oc1ccc(C2CCCCC2)cc1)C(=O)O,-5.5
11,COc1ccc(Nc2nc(NNc3cccc(C(F)(F)F)c3)nc(C)c2[N+](=O)[O-])cc1,9.1
12,O=C1S/C(=C/C=C/c2cccc([N+](=O)[O-])c2)C(=O)N1c1ccccc1,7.6
13,Nc1ccc2c(c1)C(=O)N(c1ccccc1)C2=O,6.1
14,O=C1CC(Cc2ccc(Cl)cc2)C(=O)N1c1ccc(I)cc1 (stereo not given),-15
15,CC(C)(C)c1csc(NC(=O)COc2ccc(F)cc2)n1,9.1
16,COc1ccc(-c2nc(NC(=O)c3ccccc3F)sc2-c2ccc([N+](=O)[O-])cc2)cc1,13.6
17,Cc1ccc(/C=N/NC(=O)C(C)Nc2ccc(Cl)cc2)o1 (stereo not given),2.2
18,CC1(C)Cc2ccccc2/C(=C/C(=O)Nc2ccc(Cl)cc2Cl)N1,-3.3
19,OCCCNc1nc2ccccc2n1Cc1ccccc1,-6.8
20,Cc1cn(S(=O)(=O)c2ccc(Cl)cc2)cn1,10.3
21,COc1ccccc1-c1coc2cc(OC(C)=O)ccc2c1=O,8.2
22,CCN(Cc1ccccc1)C(=O)Cc1ccc(Cl)cc1,-1.3
23,NC(=O)/C=C/C(=O)Nc1ccc2c(c1)OCO2,8.2
24,CCc1ccc(-n2c(C)cc(C=C(C#N)C#N)c2C)cc1,0
25,Cc1ccc2c(c1)C(c1ccccc1C(F)(F)F)CC(=O)N2 (stereo not given),-7.9
26,Cc1ccc(C(C)C)c(OCC(=O)N/N=C/c2cc(I)cc(I)c2O)c1,10
27,CC(=O)C1(C)N(O)C(C)(C)C(c2ccc(Br)cc2)=[N+]1[O-] (stereo not given),14.2
28,CN(C)c1ccc(C(=S)N2CCOCC2)cc1,-7.8

row,Structure (SMILES),displacement [%]
1,Cc1ccc2[nH]c3c(c2c1)CC/C(=C/N(C)C)C3=O,20.5
2,CCOc1ccccc1/C=N/NC(=O)Cc1nnc(N)s1,1.9
3,COC(=O)c1cccc(NC(=O)COc2ccc(-c3ccc(C)cc3)cc2)c1,2.5
4,CN(C)/C=C1/C(=O)N(c2nc3ccccc3s2)N=C1C(F)(F)F,-14.5
5,Cc1ccc(C2OC3(C(=O)c4ccccc4C3=O)C3C(=O)N(c4ccc(C(C)C)cc4)C(=O)C23)cc1 (stereo not given),-9.3
6,CN1/C(=C\C(=O)Nc2ccc(Br)cc2)C(C)(C)c2ccccc21,18.9
7,CCOc1cc(/C=C2/SC(=S)N(C)C2=O)cc(Br)c1OCc1ccccc1F,-7
8,COc1ccc(/C=C/C(=O)Nc2nc(-c3ccccc3)cs2)cc1,-2.1
9,O=C(COc1ccc2ccccc2c1)Nc1ccc(OC(F)(F)F)cc1,0
10,CCOC(=O)N1CCN(C(=O)CN(c2ccc(C)cc2)S(=O)(=O)c2ccc(F)cc2)CC1,6.1
11,O=C(N/N=C/c1ccc2c(c1)OCCO2)C(=O)Nc1ccc(F)cc1,-1.4
12,Cc1cc(C)cc(C=C2C(=O)c3ccccc3C2=O)c1,-10.4
13,Cc1ccc(N2C(=O)NC(=O)/C(=C\c3sccc3C)C2=O)cc1,-10.2
14,COCCOC(=O)c1ccc(NS(=O)(=O)c2ccc(Cl)cc2)cc1,2.9
15,COc1ccc(OCC(=O)Nc2ccc(F)c(Cl)c2)cc1,7.9
16,CC(=O)c1ccc(NC(=O)c2cccnc2)cc1,10.3
17,Cc1ccc(C(=O)O/N=C(\N)c2ccccc2)cc1,-9.3
18,O=C(COc1ccccc1[N+](=O)[O-])N/N=C/C(Br)=C/c1ccccc1,10.5
19,CC1(C)CC(NC(=O)C(=O)NCCc2ccc(Cl)cc2)CC(C)(C)N1,-3
20,CN(C)c1cc(NC(=O)CNC(C)(C)CC(C)(C)C)c2ccccc2n1,-3.4
21,CCc1ccccc1NC(=O)C(=O)NCCc1ccc(F)cc1,-0.9
22,O=C(COc1ccc(Cl)cc1)NCc1cccnc1,14.2
23,O=C(Nc1ccc(I)cc1)c1ccc2nccnc2c1,-12.3
24,CC1CCN(C(=O)c2ccc(Br)cc2)CC1,-8
25,CC(=O)Nc1ccc(C(=O)N2CCc3ccccc3C2)cc1,9.6
26,COC(=O)c1ccc(/C=N/N=C(N)N)cc1,-9.3
27,COc1ccc(-c2nn(-c3ccccc3)cc2/C=N/NS(=O)(=O)c2ccccc2)cc1,-6.4
